The values that follow come from the supplement of paper PMC12632987.

Over roughly 4,500 sequences, “median log2 fold change of GCK-ALFA target abundance (FLAG IP / Myc IP barcode read proportion)” has its median near 0.078; the lowest 2% begin near -0.6. The list shows a part of the results.

To fix the notation:
B1: GBRAP_128_3244 (protein)
chain: SQEELLEEAKKLVDEIVEADVEEAKELTKKLIELMKKLNKESREEVADYLIEKLKELSAEKLEAVADTLRENRPKLDDYTAALVAGVEIEALELALEQEE
B2: GBRAP_78_6739 (protein)
chain: KIEELIDEALEEIDKARELIKKLDPETQNELLDLITEALSDILLFETEGYNLEYLKEAIEHLEKAIELLKKIDTPVAKEAAKHLEKAVEYLKKAAELLEK
B3: GBRAP_184_5292 (protein)
chain: TVKRVVIEADTAEEAIAQIKAAAEAAKKAGVKLDLDLYLRNVSVEGFREIAKLLKELKEEGVIASATVDVLDERSEEETDELVKIADEAGIRLVVALSDE
B4: GBRAP_83_6946 (protein)
chain: KEKLVVATNGDNVEEGVEIAADLAKTGKYEVTLAFIGDVEAARKLIKEVGKALKKGVKFDIEIIVEGATEEEAEELRKELEKVAKEAGADVKIEVHVIPP
B5: GBRAP_53_6394 (protein)
chain: KEERIKKLIEEFRKLVEELKRADAEEAVRLAREAKAVLVELAKLGLPEEELVKLTRELAEAMRDRPELEPVLIELAKELAALGRYDAAAEVAEALVEELE
B6: GBRAP_125_3146 (protein)
chain: KRAALRALTVALARALGFSDEDIAELQRLADASDPAQAVVAVLLAAGFEEAAEVAAEVLPRLTVEEIEELRALAESLRDAPLEEVKAALLARLRELLARQ
B7: GBRAP_125_3147 (protein)
chain: KREALRRLARALARALGFSEEEIAEIERLADASDPAQTIVAILLAAGFEEAAEVAAKVLPKLTVEEIEELAELAEELEDAPLEEVKERLLKKLEELLKKL
B8: GBRAP_128_3339 (protein)
chain: VDEEKLEEVDKLVEEIIEADDEEAKKLAKELADHLVTLSLEEVEAAVEIIRKHIPKLSAEKLEILADVLREKLPLFSPEKQLIINDLIVDLLNEAEEKEE
B9: GBRAP_122_2950 (protein)
chain: ESEEEVEERVEETLERAEEEDPTEAIVESLLEAAEELTPEEVIRYAELLAERMIEKGLKAEAANAFARAALRLEEERPELAPVADHLADLAIELLDLLEE
B10: GBRAP_150_3917 (protein)
chain: DLETLLTVAETLKDLLEAILEGHFELLPHALKLAKAALELAKDITPEVEKLAREALEKVEKAEKAIKEGAPEEEVKKLAKEALKYAEELIKEIKKLIEEE
B11: GBRAP_14_3882 (protein)
chain: EEKIKALLKEHLKRFEEELERLRKLGLEEEAEKLEKRLEEELKKAEAAGDLAAAAKAAAAAAAEAEAIVLRKEEGWSEATAEAYARTEVANAELEIDELE
B12: GBRAP_14_3880 (protein)
chain: MEEIEKVLEEEFEDLAEDLAAMFPAKAEEIRELVEEERERAIERIRETGDVEKALREAEERLKARLTELLADEPETAIAAAKALVTNEIAEAELKIEELL
B13: GBRAP_80_6797 (protein)
chain: AAAALAAALAALAEVDAELAARVAAIVATARALGVSDADLADFVAAVLELAKADKEEAAALVDETEALLAEEAARGDTANATAVIRVHAGDALLAVEELE
B14: GBRAP_35_5560 (protein)
chain: DSDATIVDMMVNTIEDLTEAVADIPPAELRAITEQLAASAKAVVDDIADDKAGLERILAALEALRAAIAARGLDDPDLRAAAAAVDDAIAAARAAIAAAA
B15: GBRAP_125_3122 (protein)
chain: SEEEDLENLAALLKALGLDDEDVEEAVELARRFSIRGTLAAVMRALGREELADAVEKLTEEQTKEVVRKVVEYIKANPELTPEEVAELLLKTAKEAVAAS
B16: GBRAP_52_6340 (protein)
chain: SEEEVRRVAEEIAAAVEAGDLDRAVELTREAVRRFSREEVRRMLRLTAELMAERLPDRPDLVMEAAFRIADVVEEELGDEVLADDFLAYTARLLVERQQA
B17: GBRAP_84_7009 (protein)
chain: SRREERARLIRELVANATPELLIALATELAILGDGEGETLLLSELIERDPEVAAEALDRSTEVLLEGREAEARAELEALIAAASPEVQALVRRLLALARE
B18: GBRAP_160_4158 (protein)
chain: KEKVEELIKEIKEIFEEMKEMIEGETIEQRQVIISGYFGEIIMLIFESDVVSEEVEDLAVKLEDELVETLKANPDLTLEEIKELIDEVEKKILEKIKESA
B19: GBRAP_52_6110 (protein)
chain: MREEARRFVRELLALVKAGRLEEARARIRELVERWNDEELRILGEALAELAKEAAPEDLDAVWRLAEMIAEAMEEAGKDEVLADDLLSRVAAALYERTLK

Chain of GABARAP, O95166 (O95166 whole entry, the tested form may be a part): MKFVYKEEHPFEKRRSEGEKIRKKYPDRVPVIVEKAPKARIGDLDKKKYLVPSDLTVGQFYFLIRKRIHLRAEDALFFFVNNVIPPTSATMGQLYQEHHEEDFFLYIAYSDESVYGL

The experiment has as its target GABARAP, O95166. As to the kind of experiment: median log2 fold change of GCK-ALFA target abundance (FLAG IP / Myc IP barcode read proportion) (log2 ratio); each designed protein is fused to an ALFA-tag nanobody in HEK293 cells to bring the named protein to FLAG-tagged glucokinase (GCK); Myc marks an untargeted standard; higher = target protein stabilised (more abundant). Particulars: target protein: 3xFLAG-MCP-GCK-ALFA reporter; HEK293 landing pad (RPLP). Put shortly:
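An ALFA-nanobody-fused binder library was recombined into HEK293 landing-pad cells and induced with 2 μg mL^−1 doxycycline. Cells were transfected with a plasmid expressing a FLAG-tagged target and a Myc-tagged standard. After 48 h, lysates underwent anti-FLAG and anti-Myc immunoprecipitation, and circular RNA barcodes were reverse transcribed, amplified and sequenced. Target abundance is the per-binder median log2 ratio of FLAG to Myc barcode read proportions. Barcodes needed ≥10^−7 proportion in both replicates, binders ≥3 barcodes per replicate, and a 10^−6 pseudocount was added; the two replicates were pooled.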
B1: the “median log2 fold change” value is -0.658.

Turning to B2, the “median log2 fold change” value was -0.312.

For B3, the “median log2 fold change” value was 0.0645.

For the molecule B4, the “median log2 fold change” value is -0.0546.

On to B5, for which the “median log2 fold change” value stood at 0.202.

Regarding B6, the “median log2 fold change” value is -0.088.

Consider B7, for which the “median log2 fold change” value was -0.266.

Consider B8, for which the “median log2 fold change” value was determined as 0.172.

B9: the “median log2 fold change” value is -0.443.

For B10, the “median log2 fold change” value came out at 0.0758.

B11: the “median log2 fold change” value is 0.279.

On to B12, for which the “median log2 fold change” value worked out at 0.368.

For the molecule B13, the “median log2 fold change” value was -0.147.

B14: the “median log2 fold change” value is 0.127.

With B15, the “median log2 fold change” value stood at 0.00437.

Regarding B16, the “median log2 fold change” value is -0.23.

Take B17: the “median log2 fold change” value is -0.262.

With B18, the “median log2 fold change” value is -0.126.

Take B19: the “median log2 fold change” value turned out to be 0.0953.
